{
  "source": "PubChem BioAssay AID1454",
  "about": "(National Center for Advancing Translational Sciences (NCATS), 2008)",
  "note": "The whole screen tested about 130,000 compounds, of which about 550 (0.42%) were called active. Inconclusive results, whose numbers are uncertain, are shown with a selection of clear calls. Calls follow the shape of the dose curve; as a rule, active = well fitted inhibition curve with a large enough effect; inconclusive = small, poorly fitted or top-dose-only effect, or effect the other way; inactive = flat fitted curve, though single readings scatter. Potencies of inconclusive entries are left out as doubtful fits. Potency is read from the fitted curve at half-maximal effect; tags tell the direction and shape of the fitted curve.",
  "data": [
    {"test": "qHTS Assay for Inhibitors of the ERK Signaling Pathway using a Homogeneous Screening Assay; Stimulation with EGF; also: nearly all actives have a fitted effect of over 55% in size", "conditions": "HEK293-V1b, EGF-stimulated phospho-ERK AlphaScreen", "procedure,_shortened": "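V1b-HEK293, 1% FBS o/n; cpd 30 min 37C; EGF 25 nM final, 5 min; lyse 10 min; AlphaScreen beads 5 h RT. Normalized DMSO basal vs EGF max; Hill AC50.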", "values": [
      {"smiles": "O=P(COCCOCCOCP(=O)(c1ccccc1)c1ccccc1)(c1ccccc1)c1ccccc1", "Potency": "inactive"},
      {"smiles": "Oc1ccc(/C=N/N2CCN(C3c4ccccc4-c4ccccc43)CC2)cc1", "Potency": "inconclusive [inhibitor, single point]"},
      {"smiles": "CN1CCN(c2ccc(C(=O)c3ccc(Br)cc3)cc2[N+](=O)[O-])CC1", "Potency": "inconclusive [inhibitor, single point]"},
      {"smiles": "O=[N+]([O-])c1ccc(C2=Nc3cc(Cl)ccc3OC2)cc1", "Potency": "inconclusive [inhibitor, partial curve]"},
      {"smiles": "Cc1ccc(S(=O)(=O)Nc2ccc(NC(=O)Nc3cccc(C(F)(F)F)c3)cc2)cc1", "Potency": "inactive"},
      {"smiles": "CCOC(=O)c1cc2c(=O)n3ccccc3nc2n(CCCOC)c1=NC(=O)c1ccncc1", "Potency": "inconclusive [inhibitor, partial curve]"},
      {"smiles": "N#Cc1ccc(CN2CC3(CCN(C(=O)c4ccco4)CC3)C2)cc1", "Potency": "inactive"},
      {"smiles": "COc1ccc(Nc2nc(S(=O)(=O)c3ccc(C)cc3)c(Cl)s2)cc1", "Potency": "inconclusive [inhibitor, single point]"},
      {"smiles": "CCCCCC1C(=O)CCC1CC(=O)OC", "note": "(centres undefined)", "Potency": "inactive"},
      {"smiles": "Cc1nc2sc(C(c3ccco3)N3CCOCC3)c(O)n2n1", "note": "(centres undefined)", "Potency": "inconclusive [inhibitor, single point]"},
      {"smiles": "CN1CCN(/N=C/c2c3ccccc3c(Cl)c3ccccc23)CC1", "Potency": "inconclusive [inhibitor, single point]"},
      {"smiles": "N#Cc1cccnc1Nc1cccc(Cl)c1", "Potency": "inactive"},
      {"smiles": "CC(C)C[C@@H](CC(=O)N[C@H](CC(=O)N[C@@H]1CCNC[C@H]1C(=O)N[C@H](CC(=O)N[C@@H](CCC(=O)O)CC(=O)O)CC(C)C)C(C)C)NC(=O)[C@@H]1CNCC[C@H]1N", "Potency": "inactive"},
      {"smiles": "CCOC(=O)c1c(NC(=O)CSc2nnc(C)o2)sc(C)c1C", "Potency": "inconclusive [inhibitor, single point]"},
      {"smiles": "CC(=O)[C@@]1(O)CC[C@H]2C3CCC4=CC(=O)CC[C@]4(C)C3CC[C@@]21C", "note": "(some centres undefined)", "Potency": "inactive"},
      {"smiles": "COc1cc(C2SCCS2)cc(Br)c1Oc1ncccc1[N+](=O)[O-]", "Potency": "inconclusive [inhibitor, single point]"},
      {"smiles": "N#Cc1c(-c2ccccc2)c(C#N)c2nc3ccccc3n2c1N", "Potency": "inactive"},
      {"smiles": "Cc1ccc2nc(N3CCN(C=O)CC3)nc(-c3ccccc3)c2c1", "Potency": "inconclusive [activator, single point]"},
      {"smiles": "CCCc1nnc(NC(=O)CCC(=O)N2CCN(S(=O)(=O)c3ccc(C)cc3)CC2)s1", "Potency": "inconclusive [activator, full curve, poor fit]"}
    ]}
  ]
}
